According to PubChem BioAssay AID218 (DTP/NCI, 2004):
For part of its entries the source gives two or more results. They are shown here; other results are not. The source may hold further records. Values given together repeat one measurement in other runs, samples, wells, individuals or studies.

Tested on: C57BL/6 mice, Adenocarcinoma 755 sc, tumor weight T/C
Assay: NCI In Vivo Anticancer Drug Screen. Data for tumor model Adenocarcinoma 755 (subcutaneous) in C57BL/6 mice
Conditions: endpoint: mean tumor weight, higher = larger tumour
Description: The antitumor activity of compounds was measured in mice bearing transplantable tumors. Survival or tumor size were measured and the results are expressed as the measurement made in the treated group (T) divided by the measurement made in the vehicle treated control group (C). The tumor model used in this assay is Adenocarcinoma 755 (subcutaneous) in C57BL/6 mice

Nc1ncnc2[nH]ncc12
T/C (dose: 10.0 mg/kg/injection, schedule: Q01DX011 (ip), vehicle: saline): 2 % of control and 29 % of control

C1CN1c1nc(N2CC2)nc(N2CC2)n1
T/C (dose: 0.25 mg/kg/injection, schedule: Q01DX011 (ip), vehicle: saline): 10 % of control and 42 % of control

Cc1ncc(CO)c(C)c1O
T/C (dose: 75.0 mg/kg/injection, schedule: Q01DX011 (ip), vehicle: saline): 78 % of control and 112 % of control

S=c1nc[nH]c2nc[nH]c12
T/C (dose: 5.0 mg/kg/injection, schedule: Q01DX011 (ip), vehicle: carboxymethylcellulose (CMC)): 2 % of control and 30 % of control

CNC=O
T/C (dose: 150.0 mg/kg/injection, schedule: Q01DX011 (ip), vehicle: saline): 40 % of control, 73 % of control, 108 % of control

CC(=O)OCC(=O)[C@@]1(O)CC[C@H]2[C@@H]3CCC4=CC(=O)CC[C@]4(C)[C@H]3C(=O)C[C@@]21C
T/C (dose: 30.0 mg/kg/injection, schedule: Q01DX011 (sc), vehicle: saline): 38 % of control and 69 % of control

C=CC(COC(C)=O)N1CC1 (stereo not given)
T/C (dose: 15.0 mg/kg/injection, schedule: Q01DX011 (oral), vehicle: saline): 64 % of control and 100 % of control | T/C (dose: 30.0 mg/kg/injection, schedule: Q01DX011 (oral), vehicle: saline): 10 % of control and 46 % of control

Nc1nc2n[nH]nc2c(=O)[nH]1
T/C (dose: 75.0 mg/kg/injection, schedule: Q01DX007 (sc), vehicle: carboxymethylcellulose (CMC)): 3 % of control and 34 % of control

CCc1c(CC(=O)O)c2cc(C)ccc2n1Cc1ccc(Cl)cc1
T/C (dose: 12.5 mg/kg/injection, schedule: Q01DX011 (ip), vehicle: saline): 40 % of control and 91 % of control
